# Measured values published in a collection of fitness landscapes (doi:10.1016/j.celrep.2020.107928).
# The full ranking holds about 81,000 sequences; the median of “one-hybrid fitness for binding parS DNA” is about -0.17, and the highest 2% start at about 0.51. The list shows a part of the results.
# B1: Caulobacter ParB omega fusion; a variant is named by its letters at X, in order, B8GW30 (parent)
# chain: MESVVVGEPGMSEGRRGLGRGLSALLGEVDAAPAQAPGEQLGGSREAPIEILQRNPDQPRRTFREEDLEDLSNSIREKGVLQPILVRPSPDTAGEYQIVAGERAWRAAQRAGLKTVPIMVRELDDLAVLEIGIIENVQRADLNVLEEALSYKVLMEKFERTQENIAQTIGKSXSHVANXMRLLXLPDEVQSYLVSGELTAXHARAIAAAADPVALAKQIIEGGLSVRETEALARKAPNLSAGKSKGGRPPRVKDTDTQALESDLSSVLGLDVSIDHRGSTGTLTITYATLEQLDDLCNRLTRGI
# Variants of: B1
# Test: one-hybrid fitness for binding parS DNA (scaled: cognate 1, non-cognate 0); higher = stronger binding
# Conditions: with parS DNA site
# Summary of the method: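 Values were rescaled so that cognate is 1 and non-cognate is 0. Each is a fitness, the log change in a variant's read ratio to wild type from Illumina reads of plasmids before and after selection, with three replicate libraries pooled and variants under 10 reads dropped. Selection of the Caulobacter ParB libraries, four specificity codons randomised, used E. coli USO with a HIS3 reporter, site 19 bp from the promoter, on M9-minus-histidine with 0.1 mM IPTG and 5 mM 3-AT for 48 hours at 37°C.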
row,Variant,one-hybrid fitness for binding parS DNA
1,GVPF,≤ 0.2
2,INKK,≤ 0.2
3,LQFA,≤ 0.2
4,QVWT,≤ 0.2
5,CSYT,≤ 0.2
6,GYPG,≤ 0.2
7,WITS,≤ 0.2
8,ACTV,≤ 0.2
9,WPWS,≤ 0.2
10,PQVF,≤ 0.2
11,LTMI,≤ 0.2
12,QLLL,≤ 0.2
13,MTLN,≤ 0.2
14,CQTC,≤ 0.2
15,PCAT,≤ 0.2
16,RPND,≤ 0.2
17,AISY,≤ 0.2
18,AWSN,≤ 0.2
19,RLPI,≤ 0.2
20,STVV,≤ 0.2
21,QQME,≤ 0.2
22,NYAT,≤ 0.2
23,RTKN,0.441
24,QYQP,≤ 0.2

row,Variant,one-hybrid fitness for binding parS DNA
1,HKPL,≤ 0.2
2,YREC,≤ 0.2
3,RKSP,≤ 0.2
4,RSSV,≤ 0.2
5,DTKC,≤ 0.2
6,QAPH,≤ 0.2
7,FVDC,≤ 0.2
8,PWCS,≤ 0.2
9,HVDS,≤ 0.2
10,KANC,≤ 0.2
11,VDDG,≤ 0.2
12,TGTN,≤ 0.2
13,DWTH,≤ 0.2
14,PWDC,≤ 0.2
15,YYSG,≤ 0.2
16,AWRG,≤ 0.2
17,RVDR,≤ 0.2
18,FPSC,≤ 0.2
19,TPHP,≤ 0.2
20,AQST,≤ 0.2
21,IRRY,≤ 0.2
22,VQFT,≤ 0.2
23,YMMY,≤ 0.2
24,SRKA,≤ 0.2

row,Variant,one-hybrid fitness for binding parS DNA
1,FNQG,≤ 0.2
2,TENG,≤ 0.2
3,FMAT,≤ 0.2
4,ANKD,≤ 0.2
5,VGPD,≤ 0.2
6,FWPA,≤ 0.2
7,YSIC,≤ 0.2
8,CYML,≤ 0.2
9,KPPF,≤ 0.2
10,LKMM,≤ 0.2
11,NNDY,≤ 0.2
12,LNQC,≤ 0.2
13,LNTI,≤ 0.2
14,MQQC,≤ 0.2
15,EVQV,≤ 0.2
16,WDTR,≤ 0.2
17,GTPF,≤ 0.2
18,YYNA,≤ 0.2
19,GPYW,≤ 0.2
20,DDNC,≤ 0.2
21,HFHG,≤ 0.2
22,RTGF,0.317
23,MDMM,0.298
24,ECRR,≤ 0.2

row,Variant,one-hybrid fitness for binding parS DNA
1,HNPG,≤ 0.2
2,QLYM,≤ 0.2
3,RHEP,≤ 0.2
4,QDAI,≤ 0.2
5,KRYI,≤ 0.2
6,ACLC,≤ 0.2
7,WGSR,≤ 0.2
8,VQIG,≤ 0.2
9,KAML,≤ 0.2
10,DVEG,≤ 0.2
11,RAWL,≤ 0.2
12,RWPQ,≤ 0.2
13,FAQC,≤ 0.2
14,TQEA,≤ 0.2
15,AMVA,≤ 0.2
16,LRTS,0.206
17,AMMW,≤ 0.2
18,KGWG,≤ 0.2
19,MHDT,≤ 0.2
20,FHRA,≤ 0.2
21,QLAN,≤ 0.2
22,GSSM,≤ 0.2
23,RGHS,0.73
24,FGPD,≤ 0.2

row,Variant,one-hybrid fitness for binding parS DNA
1,SGPR,≤ 0.2
2,SFLQ,≤ 0.2
3,VISL,≤ 0.2
4,SHHM,≤ 0.2
5,AIIN,≤ 0.2
6,LHNL,≤ 0.2
7,IDRY,≤ 0.2
8,RHPE,≤ 0.2
9,GSTE,≤ 0.2
10,RQCH,≤ 0.2
11,KTLE,≤ 0.2
12,GTLR,≤ 0.2
13,LPVV,≤ 0.2
14,RCWR,≤ 0.2
15,REQM,≤ 0.2
16,SHFG,≤ 0.2
17,KSKN,≤ 0.2
18,VADN,≤ 0.2
19,TWRI,≤ 0.2
20,RCCR,≤ 0.2
21,HAFG,≤ 0.2
22,LGPE,≤ 0.2
23,SYSA,≤ 0.2
24,HYAG,≤ 0.2

row,Variant,one-hybrid fitness for binding parS DNA
1,EYYS,≤ 0.2
2,ESYL,≤ 0.2
3,PNSM,≤ 0.2
4,VVWR,≤ 0.2
5,NAVY,≤ 0.2
6,RYRP,≤ 0.2
7,RPML,≤ 0.2
8,KEST,≤ 0.2
9,CVLR,≤ 0.2
10,KRWQ,≤ 0.2
11,HPGF,≤ 0.2
12,NNRT,≤ 0.2
13,HKDQ,≤ 0.2
14,IAMS,≤ 0.2
15,TTPC,≤ 0.2
16,QWVL,≤ 0.2
17,HLCS,≤ 0.2
18,KKKC,≤ 0.2
19,RIIT,0.715
20,KPYS,≤ 0.2
21,RRCQ,≤ 0.2
22,DLQT,≤ 0.2
23,DHAL,≤ 0.2
24,ELWS,≤ 0.2

row,Variant,one-hybrid fitness for binding parS DNA
1,MVEM,≤ 0.2
2,SQII,≤ 0.2
3,VYQT,≤ 0.2
4,MTVQ,≤ 0.2
5,AMVG,≤ 0.2
6,HEPC,≤ 0.2
7,MAKP,≤ 0.2
8,VPQG,≤ 0.2
9,QLQG,≤ 0.2
10,SLLL,≤ 0.2
11,RQLE,≤ 0.2
12,SKTS,≤ 0.2
13,HPPS,≤ 0.2
14,LWQC,≤ 0.2
15,IFLG,≤ 0.2
16,LWLC,≤ 0.2
17,RGVF,≤ 0.2
18,FGDF,0.244
19,HHKS,≤ 0.2
20,TRVP,≤ 0.2
21,RLSH,0.266
22,YTVT,≤ 0.2
23,LTRA,≤ 0.2
24,RDGT,≤ 0.2

row,Variant,one-hybrid fitness for binding parS DNA
1,QYAS,≤ 0.2
2,QRRD,≤ 0.2
3,AHVF,≤ 0.2
4,MRRA,≤ 0.2
5,TGPW,≤ 0.2
6,VYYT,≤ 0.2
7,WPAS,≤ 0.2
8,PKHG,≤ 0.2
9,FLEG,≤ 0.2
10,IALM,≤ 0.2
11,TRAT,≤ 0.2
12,YPQC,≤ 0.2
13,TGNC,≤ 0.2
14,SQGR,≤ 0.2
15,HWAC,≤ 0.2
16,ALQT,≤ 0.2
17,YALS,≤ 0.2
18,LGHF,≤ 0.2
19,HYQT,≤ 0.2
20,LTLP,≤ 0.2
21,RTGE,≤ 0.2
22,RVTY,0.459
23,THVK,≤ 0.2
24,DCSR,≤ 0.2

row,Variant,one-hybrid fitness for binding parS DNA
1,VSAH,≤ 0.2
2,WIPP,≤ 0.2
3,TYMW,≤ 0.2
4,WRNI,≤ 0.2
5,VAEC,≤ 0.2
6,MSPA,≤ 0.2
7,RKLM,0.272
8,WRDV,≤ 0.2
9,SGVK,≤ 0.2
10,PELL,≤ 0.2
11,NPYC,≤ 0.2
12,RSIR,≤ 0.2
13,IMLR,≤ 0.2
14,NYPW,≤ 0.2
15,GVDL,≤ 0.2
16,QHTN,≤ 0.2
17,AWRY,≤ 0.2
18,RWNG,0.797
19,HRQV,≤ 0.2
20,SGET,≤ 0.2
21,YTKG,≤ 0.2
22,QTCV,≤ 0.2
23,GCAP,≤ 0.2
24,KIYR,≤ 0.2

row,Variant,one-hybrid fitness for binding parS DNA
1,TVMS,≤ 0.2
2,ENLH,≤ 0.2
3,MPMT,≤ 0.2
4,GWPD,≤ 0.2
5,YWTR,≤ 0.2
6,GTTM,≤ 0.2
7,KGCR,≤ 0.2
8,WRPC,≤ 0.2
9,FMTE,≤ 0.2
10,IRDC,≤ 0.2
11,VRIA,≤ 0.2
12,LCLK,≤ 0.2
13,SCPD,≤ 0.2
14,EFLK,≤ 0.2
15,YGFF,≤ 0.2
16,DVHR,≤ 0.2
17,IRAM,≤ 0.2
18,LYHS,≤ 0.2
19,SSNW,≤ 0.2
20,HQGP,≤ 0.2
21,REDW,≤ 0.2
22,YIMR,≤ 0.2
23,CSQA,≤ 0.2
24,HYWM,≤ 0.2

row,Variant,one-hybrid fitness for binding parS DNA
1,GCQC,≤ 0.2
2,IDHT,≤ 0.2
3,VDRK,≤ 0.2
4,LAGS,≤ 0.2
5,DTHI,≤ 0.2
6,WRDY,≤ 0.2
7,RKSF,≤ 0.2
8,NFQE,≤ 0.2
9,YLQP,≤ 0.2
10,RWVR,≤ 0.2
11,RARG,0.956
12,PEPI,≤ 0.2
13,GRMW,≤ 0.2
14,TLIS,≤ 0.2
15,RMIQ,≤ 0.2
16,RFNR,≤ 0.2
17,RTVA,0.566
18,PHHV,≤ 0.2
19,QSEH,≤ 0.2
20,FKAG,≤ 0.2
21,DKVR,≤ 0.2
22,APGC,≤ 0.2
23,QCIY,≤ 0.2
24,GSKI,≤ 0.2

row,Variant,one-hybrid fitness for binding parS DNA
1,HMHD,≤ 0.2
2,RSRV,≤ 0.2
3,CFMK,≤ 0.2
4,GNKA,≤ 0.2
5,HIID,≤ 0.2
6,EGGI,≤ 0.2
7,QTVF,≤ 0.2
8,MSFT,≤ 0.2
9,VKCI,≤ 0.2
10,WANS,≤ 0.2
11,HFEE,≤ 0.2
12,PQHY,≤ 0.2
13,AKPI,≤ 0.2
14,PLRV,≤ 0.2
15,DGKR,≤ 0.2
16,SRLT,≤ 0.2
17,KLLV,≤ 0.2
18,QLHG,≤ 0.2
19,NRRC,≤ 0.2
20,MRHS,≤ 0.2
21,YRAS,0.283
22,IKTI,≤ 0.2
23,STCS,≤ 0.2
24,TGGS,≤ 0.2

row,Variant,one-hybrid fitness for binding parS DNA
1,KIVR,≤ 0.2
2,HMFR,≤ 0.2
3,PFPP,≤ 0.2
4,NHEV,≤ 0.2
5,INQG,≤ 0.2
6,TEGL,≤ 0.2
7,CCNA,≤ 0.2
8,STAP,≤ 0.2
9,EYPC,≤ 0.2
10,DHFR,≤ 0.2
11,SWTA,≤ 0.2
12,DIKS,≤ 0.2
13,TIMS,≤ 0.2
14,ADCQ,≤ 0.2
15,TYPP,≤ 0.2
16,IIAG,≤ 0.2
17,KIFT,≤ 0.2
18,EEAP,≤ 0.2
